According to PubChem BioAssay AID1030 (National Center for Advancing Translational Sciences (NCATS), 2008):
Values joined by “and” are separate entries in the source; they are usually repeats but may differ in a detail not shown here. Equal entries are not always repeated. In all, about 220,000 compounds went through this assay and about 16,000 (7.3%) were called active. The shares of active, inactive and inconclusive entries below differ from those in the screen. The call rests on the fitted dose curve; in most records, active means well fitted inhibition curve with a large enough effect (not every such curve was filed as active); inconclusive means small, poorly fitted or top-dose-only effect, or another doubt; inactive means no such curve, though single readings can be large or run the other way. A potency beside an inconclusive call is a rough fit, not a confirmed value. More than one record can exist for a structure, and the calls need not agree.

What follows are compounds tested against Aldehyde dehydrogenase 1A1 (Homo sapiens) (UniProt P00352) (assay: qHTS Assay for Inhibitors of Aldehyde Dehydrogenase 1 (ALDH1A1)). Conditions: Purified ALDH1A1, NADH fluorescence, propionaldehyde substrate; series mostly up to 75.3 µM; activity, negative = inhibition: at the top concentration.
Potency means the concentration at half of the fitted maximal effect; tags describe the fitted curve by direction and shape.
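Wherever activity, negative = inhibition is given: plate controls were no enzyme wells and a reference inhibitor.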

UniProt P00352, sequence (P00352 whole entry, looked up): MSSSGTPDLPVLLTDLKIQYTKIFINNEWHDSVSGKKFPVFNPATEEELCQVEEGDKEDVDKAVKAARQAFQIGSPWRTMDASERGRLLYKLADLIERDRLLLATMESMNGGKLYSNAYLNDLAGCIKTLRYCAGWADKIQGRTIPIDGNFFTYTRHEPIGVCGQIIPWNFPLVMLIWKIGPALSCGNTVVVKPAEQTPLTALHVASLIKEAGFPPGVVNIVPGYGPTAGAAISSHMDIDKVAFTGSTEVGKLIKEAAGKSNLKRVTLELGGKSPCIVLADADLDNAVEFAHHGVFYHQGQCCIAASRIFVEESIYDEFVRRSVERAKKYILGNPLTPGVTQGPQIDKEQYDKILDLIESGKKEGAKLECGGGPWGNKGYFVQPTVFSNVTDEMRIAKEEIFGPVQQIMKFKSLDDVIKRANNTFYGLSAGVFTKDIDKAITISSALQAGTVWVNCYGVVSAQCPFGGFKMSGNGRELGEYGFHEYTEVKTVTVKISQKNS

Potency, inactive and 14.1 µM (active):
CC1=CC(=O)c2ccccc2C1=O

Potency, inconclusive:
CCOC(=O)c1c(NC(=O)C(=O)N/N=C/c2ccccc2O)sc2c1CCCCC2 44.7 µM [inhibitor, single point]
Cn1c(=O)n(CC(=O)NC2CCCCC2)c(=O)c2ccccc21 22.4 µM [inhibitor, partial curve]
COc1cc(OC)cc(C(=O)Nc2ccc(NC(=O)c3ccco3)c(Cl)c2)c1 35.5 µM [inhibitor, single point]
COc1cccc(NC(=O)C(c2ccccc2)N2CCN(c3ccccn3)CC2)c1 (stereo unspecified) 39.8 µM [inhibitor, single point]
CSc1ccc(-c2nc3cnccn3c2Nc2ccc3c(c2)OCO3)cc1 39.8 µM [inhibitor, single point]
O=C(c1ccc2c(c1)OCO2)N1CCCN(C(=O)c2ccc3c(c2)OCO3)CC1 39.8 µM [inhibitor, single point]
O=C(CCN1C(=O)c2ccccc2C1=O)NCc1ccco1 39.8 µM [inhibitor, single point]
CCn1c(C)nc2cc(-c3nc4n(n3)Cc3ccccc3-4)ccc21 31.6 µM [inhibitor, single point]
O=C(NC(=S)Nc1c(F)cc(F)cc1Br)c1ccc2c(c1)OCCO2 28.2 µM [inhibitor, single point]
C/C(=N\Nc1ccc([N+](=O)[O-])cc1)c1ccc(O)cc1 23.8 µM [inhibitor, single point]
CC(C)CN(Cc1cc2ccccc2[nH]c1=O)C(=O)c1cccnc1 31.6 µM [inhibitor, single point]
CCOc1cc2[nH]c(=O)n(CCCC(=O)NCc3ccc(OC)cc3)c(=O)c2cc1OCC 28.2 µM [inhibitor, single point]
O=C(CCc1nnc(-c2ccc3c(c2)OCO3)o1)NC(c1ccccn1)C(F)(F)F (stereo unspecified) 35.5 µM [inhibitor, single point]
CC(C)C(c1nnnn1Cc1ccc(F)cc1)N1CCN(C(=O)c2ccco2)CC1 (stereo unspecified) 15.8 µM [inhibitor, partial curve]
S=c1[nH]nc(-c2ccncc2)n1/N=C/C=C/c1ccco1 39.8 µM [inhibitor, single point]
Cc1ccc2nc(NCCCO)nc(-c3ccccc3)c2c1 37.7 µM [inhibitor, single point]
N#Cc1c(-c2cccc(Br)c2)cc(-c2ccco2)[nH]c1=O 4.47 µM [inhibitor, full curve]
CCN(CC)c1ccc(NC(=O)c2ccc3c(c2)c(C)c(C)n3C)cc1 39.8 µM [inhibitor, single point]
COc1ccc(C2N(c3ccc(OC)cc3)C(=O)C3CCCN32)cc1 (stereo unspecified) 28.2 µM [inhibitor, partial curve]
O=C1NN(c2ccccc2)C(=O)/C1=C/c1cccs1 39.8 µM [inhibitor, single point]
Cc1ccc(Nc2nc(-c3ccncc3)nc3ccccc23)cc1 39.8 µM [inhibitor, single point]
Cc1nc(CN2CCN(C(=O)c3ccc(C(C)(C)C)cc3)CC2)cs1 25.1 µM [inhibitor, partial curve]
Cc1cc(Cl)ccc1NC(=O)CSc1nnc(Cc2cccs2)n1Cc1ccco1 39.8 µM [inhibitor, single point]
O=C(Nc1cccn(Cc2c(Cl)cccc2Cl)c1=O)c1ccccc1Cl 15.8 µM [inhibitor, partial curve]
CCc1ccccc1NC(=O)c1cc(-c2cccc(O)c2)on1 39.8 µM [inhibitor, single point]
O=C(O)c1ccccc1S(=O)(=O)NCC(O)COC1CCCCC1 (stereo unspecified) 39.8 µM [inhibitor, single point]
COc1ccc(Oc2ncc3nc(C)c(=O)n(-c4ccc(OC)cc4)c3n2)cc1 25.1 µM [inhibitor, partial curve]
O=C(CCC(=O)Nc1ccccc1Cl)N/N=C/c1c[nH]c2ccccc12 39.8 µM [inhibitor, single point]
CCCCCCN1CC(C(=O)OCC)C(=O)C1=O (stereo unspecified) 22.4 µM [inhibitor, partial curve]
CCC(=O)N1N=C(c2ccc(NS(=O)(=O)CC)cc2)CC1c1ccc(C)cc1 (stereo unspecified) 31.6 µM [inhibitor, partial curve]

Potency, active:
CCCCCOC(=O)c1[nH]c2c(c1C)C(=O)CC(c1ccco1)C2 (stereo unspecified) 28.2 µM
CCC(C)c1ccc(NC(=S)NCc2cccnc2)cc1 (stereo unspecified) 15.8 µM
COc1ccccc1N1CCN(C(=O)CSc2nnc(NC(=O)C(C)C)s2)CC1 8.91 µM
O=c1oc2ccccc2c(O)c1/C=N/c1nc(-c2ccc(O)c(O)c2)cs1 3.55 µM
Cc1cc(C)c(Nc2cc(S(=O)(=O)O)c(N)c3c2C(=O)c2ccccc2C3=O)c(C)c1 25.1 µM

activity, negative = inhibition, inactive:
C/C(=N\Nc1nnc(C)c(=O)[nH]1)C(=O)O -4.52%
O=C(COC(=O)c1ccc(NS(=O)(=O)c2ccc(F)c(F)c2)cc1)NCC1CCCO1 (stereo unspecified) -2.59%
CC(C)(C)C(=O)Nc1ccc(C(=O)N/N=C/c2ccccc2OC(=O)c2ccccc2)cc1 7.65%
CC[n+]1c(/C=C(\C)Nc2ccccc2)sc2ccccc21 -6.8%
Cc1ccc(-n2ncc(Cl)c2C(=O)NC2CC2)cc1 -4.42%
CSc1ccc(NC(=O)Nc2ccc(C(=O)NCC(=O)O)cc2)cc1 13.3%
COCCCNC(=O)CCSc1ccc(Cl)cc1 14.6%
CC(CC(=O)N1CCN(c2ccccc2)CC1)c1ccccc1 (stereo unspecified) 13.1%
CCOc1cc(N2CCOCC2)c(OCC)cc1NC(=O)c1ccc2ccccc2n1 -7.61%
NCCC(O)(P(=O)(O)O)P(=O)(O)O -5.18%
